Test [1] has as its target HAdV-5 E1A expressed from WT virus (dl309) (HAdV-5) (UniProt P03255). As to the kind of experiment: co-IP.
Test [2] deals with HAdV-5 E1A Δ1–29 (HAdV-5) (UniProt P03255). The experiment in a line: co-IP; HT1080 cells co-transfected with PKA subunit constructs and E1A constructs; NP40 lysis buffer (150mM NaCl, 50mM Tris-HCL pH 7.5, 0.1% NP-40); immunoprecipitation at 4°C for 4 hours; western blot. For orientation: In western blotting, separated proteins are transferred to a membrane and probed.
Test [3] has as its target HAdV-5 E1A Δ1–14 (HAdV-5) (UniProt P03255). Described as above.
In test [4] the target is HAdV-5 E1A 187–289, EGFP fusion (HAdV-5) (UniProt P03255). The description is as above.
The target of test [5] is HAdV-5 E1A 139–204, EGFP fusion (HAdV-5) (UniProt P03255). The description is as above.
Test [6] concerns the target HAdV-5 E1A 93–139, EGFP fusion (HAdV-5) (UniProt P03255). Described as above.
Test [7] concerns the target HAdV-5 E1A Δ1–82 (HAdV-5) (UniProt P03255). The test is described as above.
For test [8], the target named is WT HAdV-5 E1A, transfected (pcDNA3) (HAdV-5) (UniProt P03255). Described as above.
Test [9] addresses HAdV-5 E1A 1–82, EGFP fusion (HAdV-5) (UniProt P03255). The description is as above.
The target of test [10] is HAdV-5 E1A 14–28, EGFP fusion (HAdV-5) (UniProt P03255). The test is described as above.
The target in test [11] is WT HAdV-5 E1A, transfected (pcDNA3) (HAdV-5) (UniProt P03255). The experiment in a line: co-IP; HT1080 cells co-transfected with the PKA subunits, WT E1A and the inhibitors RIAD-EGFP or sAKAPis-EGFP; immunoprecipitation with an anti-E1A antibody; PKA subunits detected by western blot.
The target in the next test is T1, WT AKAP1, EGFP fusion (UniProt Q92667).
T1 sequence: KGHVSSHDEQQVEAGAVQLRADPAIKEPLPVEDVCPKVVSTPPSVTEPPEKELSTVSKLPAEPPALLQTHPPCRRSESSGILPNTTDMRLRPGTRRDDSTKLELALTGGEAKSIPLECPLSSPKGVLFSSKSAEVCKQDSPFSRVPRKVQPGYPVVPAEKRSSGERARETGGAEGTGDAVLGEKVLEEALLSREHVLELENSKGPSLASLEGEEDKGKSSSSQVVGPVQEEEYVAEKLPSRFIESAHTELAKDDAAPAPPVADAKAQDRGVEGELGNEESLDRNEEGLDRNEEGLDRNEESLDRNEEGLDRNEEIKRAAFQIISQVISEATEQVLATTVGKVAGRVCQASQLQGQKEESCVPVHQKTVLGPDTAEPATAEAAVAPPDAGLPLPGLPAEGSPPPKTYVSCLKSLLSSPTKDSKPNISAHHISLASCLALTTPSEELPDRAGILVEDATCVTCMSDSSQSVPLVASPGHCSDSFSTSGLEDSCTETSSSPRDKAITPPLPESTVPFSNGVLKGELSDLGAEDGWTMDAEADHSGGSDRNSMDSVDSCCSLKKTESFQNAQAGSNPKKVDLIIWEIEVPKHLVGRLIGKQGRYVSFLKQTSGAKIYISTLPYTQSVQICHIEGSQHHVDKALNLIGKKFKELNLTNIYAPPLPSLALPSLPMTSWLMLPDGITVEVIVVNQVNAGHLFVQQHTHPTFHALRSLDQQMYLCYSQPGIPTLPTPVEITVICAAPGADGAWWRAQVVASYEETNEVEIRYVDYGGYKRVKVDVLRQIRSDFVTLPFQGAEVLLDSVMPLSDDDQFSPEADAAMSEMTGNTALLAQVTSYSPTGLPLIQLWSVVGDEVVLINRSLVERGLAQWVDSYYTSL
As to the kind of experiment: co-IP; HT1080 cells co-transfected with PKA subunits and EGFP fusions of AKAP1 constructs; immunoprecipitation with an anti-EGFP antibody; co-precipitating PKA detected by western blot.

Amino acid sequences for entries named in this document (tags omitted).
UniProt P13861: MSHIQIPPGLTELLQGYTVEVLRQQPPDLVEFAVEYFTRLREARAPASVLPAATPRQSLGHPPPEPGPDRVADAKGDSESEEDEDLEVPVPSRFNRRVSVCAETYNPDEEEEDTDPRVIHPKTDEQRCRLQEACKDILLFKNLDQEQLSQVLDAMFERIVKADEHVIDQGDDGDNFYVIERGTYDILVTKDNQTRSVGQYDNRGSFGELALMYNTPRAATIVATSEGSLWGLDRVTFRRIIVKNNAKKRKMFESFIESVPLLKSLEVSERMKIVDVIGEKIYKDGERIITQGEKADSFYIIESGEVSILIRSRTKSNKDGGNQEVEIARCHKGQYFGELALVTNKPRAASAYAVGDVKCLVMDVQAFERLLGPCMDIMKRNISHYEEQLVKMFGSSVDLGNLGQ
UniProt P10644: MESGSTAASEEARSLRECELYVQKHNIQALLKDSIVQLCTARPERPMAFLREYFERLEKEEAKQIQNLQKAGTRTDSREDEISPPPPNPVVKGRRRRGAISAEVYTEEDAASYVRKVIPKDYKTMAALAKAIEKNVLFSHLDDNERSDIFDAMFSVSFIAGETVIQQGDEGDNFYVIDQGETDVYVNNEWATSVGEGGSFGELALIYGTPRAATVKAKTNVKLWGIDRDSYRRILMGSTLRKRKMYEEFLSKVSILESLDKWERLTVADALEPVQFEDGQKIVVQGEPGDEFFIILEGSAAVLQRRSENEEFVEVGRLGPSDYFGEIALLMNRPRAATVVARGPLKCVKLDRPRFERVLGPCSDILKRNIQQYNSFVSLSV

Data on four substances can be found in article PMC4854477.

No constants are given. Whether binding was seen depends on the method and setting. In cells and extracts the contact can be indirect. Some entries that bind do so weakly or less than the wild type. For some assays here: Where a sequence is shown, tags or fusion partners need not be part of it.

Consider “PKA regulatory subunit RIIα, endogenous (from UniProt P13861 1-404)”, for which the binding result in test [1] is recorded as “binds”.

Take “WT RIIα, transfected (from UniProt P13861 1-404)”: the binding entry in [2] is reported as “no binding”; in [3], “binds”; in test [4] it was “no binding”; in test [5] it was “no binding”; in test [6] it was “no binding”; in test [7] it was “no binding”. Besides, the binding result in test [8] was “binds”; in [9], “binds”; in test [10], “binds”; in test [11] it was “binds”; with WT AKAP1, EGFP fusion, “binds”.

For the substance “PKA regulatory subunit RIα, endogenous (from UniProt P10644 1-381)”, the binding result in test [1] was “binds”.

Turning to “WT RIα, transfected (from UniProt P10644 1-381)”, the binding result was “no binding” in test [2]; “binds” in test [3]; “no binding” in [4]; “no binding” in test [5]; “no binding” in [6]; “no binding” in [7]. Further, the binding entry in test [8], in test [9], in [10] and in [11] was “binds” in each case.
